Among all 320,000 compounds or so, about 200 (0.062%) were called active. This list was built around the results that the source calls inconclusive (neither active nor inactive); the mix of calls is not that of the screen. The call rests on the fitted dose curve; in most records, active means well fitted activation curve with a large enough effect; inconclusive means small, poorly fitted or top-dose-only effect; inactive means no such curve, though single readings can be large or run the other way. No potency is given beside an inconclusive call; the fits are too rough.
Assay: qHTS assay for re-activators of p53 using a Luc reporter; further: nearly all actives have a fitted effect of over 45% in size
Conditions: H1299 p53-A138V BP100-luciferase reporter, luminescence, 24 h; series mostly up to 92.2 µM
Outline: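 p53-null H1299 cells stably carrying temperature-sensitive p53-A138V and a BP100-luciferase reporter were pinned with compounds (4-point, 1:5 series) and held 24 hrs at 37 deg C. Luminescence was read 10 min after detection reagent.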
Potency means the concentration at half of the fitted maximal effect; tags describe the fitted curve by direction and shape.

Compound | Potency
COCC(=O)Nc1ccccc1NC(C)=O | inconclusive [activator, full curve]
CN=C1S/C(=C\c2ccc(SC)cc2)C(=O)N1C | inconclusive [activator, full curve, poor fit]
CN(C)/C=N/c1ncnc2c1cnn2-c1ccc(C(F)(F)F)cn1 | inconclusive [activator, full curve, poor fit]
CCCC(=O)Nc1ccc(-c2csc(N/N=C\c3ccncc3)n2)cc1 | inactive
Cc1ccc(NC(=O)CSCC(=O)O)cc1 | inactive
CC1CCc2sc(NC(=S)NC(=O)c3ccccc3)c(C#N)c2C1 (stereo not given) | inconclusive [activator, full curve, poor fit]
Oc1ccc(/C=N/Nc2ncc(Cl)cc2Cl)cc1 | inactive
O=C(NNCc1ccc(O)cc1)c1ccccc1Cl | inconclusive [activator, partial curve, poor fit]
Cc1occc1C(=O)Nc1ccc2c(c1)OCO2 | inconclusive [activator, partial curve]
COCCNC(=S)N/N=C(\C)c1cc2ccccc2o1 | inconclusive [activator, single point]
CN(C)CCNC(=O)c1ccc(Sc2ccc(Br)cc2)c([N+](=O)[O-])c1 | inconclusive [activator, single point]
CC(=O)N1CCc2cc(S(=O)(=O)Nc3cccc(C(F)(F)F)c3)ccc21 | inactive
N#Cc1c(-c2cccs2)cc(-c2cccnc2)nc1N | inactive
COCCCNC(=S)N/N=C/c1ccc(O)cc1 | inactive
COCc1ccc(-c2c(-c3ccsc3)oc(=O)c3cc(OC)c(OC)cc23)cc1 | inconclusive [activator, full curve, poor fit]
O=[N+]([O-])c1ccc(O)c(C=Nc2ccc3nc(-c4ccccc4)[nH]c3c2)c1 | inconclusive [activator, full curve, poor fit]
O=C(Nc1ccccc1)Nc1cccc(Cl)c1 | inconclusive [activator, partial curve, poor fit]
Nc1ccc(O)c(-c2nc3ccccc3s2)c1 | inconclusive [activator, partial curve, poor fit]
CC1=CC(=Nc2c(C)n(C)n(-c3ccccc3)c2=O)C=C(C)C1=O | inconclusive [activator, single point]
CC(=O)c1ccc(OCc2cc(C(=O)NCC3CCCCO3)no2)cc1 (stereo not given) | inconclusive [activator, single point]
CC(=O)c1sc(NC(=O)CCS(=O)(=O)c2ccc(C)cc2)nc1C | inconclusive [activator, single point]
Cc1ccc(OCc2cc(C(=O)N(C)CC3CCOCC3)no2)cc1C | inconclusive [activator, partial curve, poor fit]
COc1ccc(C2=NN(C(=O)c3ccccc3C(=O)O)C(c3ccccc3O)C2)cc1 (stereo not given) | inconclusive [activator, partial curve]
CC1=C(C(N)=O)C(c2cccnc2)n2nc(-c3cccc(C)c3)nc2N1 (stereo not given) | inactive

Compound | Potency
S=c1nc(COc2ccccc2)[nH]c2ccccc12 | inconclusive [activator, full curve, poor fit]
Cc1ccc(-c2cc(N)n(-c3ccc(C)cc3)n2)cc1 | inconclusive [activator, full curve, poor fit]
Cc1ccc(NCc2nc3ccccc3n2C)c(C)c1 | inactive
Cc1ccc(O)c(CCc2ccccc2)n1 | inconclusive [activator, full curve, poor fit]
O=C(Nc1nnc(-c2ccc(Cl)cc2)o1)c1ccccc1Br | inconclusive [activator, partial curve, poor fit]
c1ccc2c(Nc3nnc(-c4ccncc4)s3)cccc2c1 | inactive
COC(=O)c1ccc(C2C(C(=O)c3ccc(C)o3)=C(O)C(=O)N2c2cc(C)on2)cc1 (stereo not given) | inactive
CCC(C)Sc1cc(-c2nc3ccccn3c2NC2CCCCC2)ccc1OC (stereo not given) | inactive
O=C(CCCc1c[nH]c2ccccc12)N1CCOCC1 | inconclusive [activator, single point]
CCOC(=O)N1CCN(S(=O)(=O)c2ccc(C(=O)NNc3nc4cc(C)cc(C)c4s3)cc2)CC1 | inconclusive [activator, partial curve, poor fit]
Cc1ccc(S(=O)(=O)NC(CC(C)C)C(=O)N2CC(C)OC(C)C2)cc1 (stereo not given) | inactive
COC(=O)c1c(NC(=O)c2ccco2)sc2c1CCC2 | inactive
N#C/C(=C(/O)c1ccc(C(=O)c2ccccc2)cc1)c1nc2ccccc2[nH]1 | inactive
CCc1ccc(C(=O)NC2CCCCC2)s1 | inconclusive [activator, partial curve, poor fit]
O=c1nc2n(c3sc4c(c13)CCCC4)C(CBr)CS2 (stereo not given) | inconclusive [activator, single point]
Cc1ccc(/C=C2\SC(=S)N(CCC(=O)NNS(=O)(=O)c3ccc(C)cc3)C2=O)cc1 | inconclusive [activator, single point]
COc1cc(C2C(C#N)=C(N)Oc3cc(C)n(CCN4CCOCC4)c(=O)c32)cc(OC)c1OC (stereo not given) | inconclusive [activator, single point]
Cc1cc(C)c2c(c1)/C(=N\N=c1\sc3ccccc3n1C)C(=O)N2 | inactive
O=C(NNC(=O)c1ccc(NC(=O)C2CC2)cc1)c1ccc(F)cc1 | inconclusive [activator, single point]
CC(=O)Nc1cnc(NC(=O)c2cccc(F)c2)cc1C | inconclusive [activator, full curve, poor fit]
O=C(NNC(=O)c1ccc(-c2ccccc2)cc1)c1ccccc1 | inconclusive [activator, partial curve, poor fit]
O=C(NC(=S)Nc1ccc(N2CCOCC2)cc1)c1ccco1 | inconclusive [activator, partial curve, poor fit]
Cc1nc2c(C(=O)NCCC(C)C)c[nH]n2c(=O)c1Cc1ccccc1F | inconclusive [activator, single point]
Fc1cccc(/C=N/Nc2ccc3ccccc3n2)c1 | inconclusive [activator, full curve, poor fit]

Compound | Potency
CC(=O)Nc1ccc(N=Nc2ccc(O)cc2)cc1 | inconclusive [activator, full curve, poor fit]
Cc1cccc(C)c1NC(=O)CS(=O)CC(=O)NCC1OCCc2ccccc21 (stereo not given) | inactive
CCCCCCc1nc2ccccc2c(=O)n1N | inconclusive [activator, single point]
Cc1ccc(-c2nn(CC(=O)N3CCOCC3)c(=O)c3ccccc23)cc1S(=O)(=O)N(C)C | inactive
CC(C)(C)SCCNC(=O)c1ccccc1 | inconclusive [activator, partial curve, poor fit]
O=C1N(c2ccccc2C(F)(F)F)O[C@]1(c1ccccc1)C1CCCCC1 | inconclusive [activator, single point]
O=C(c1ccc(Cl)c([N+](=O)[O-])c1)N(Cc1ccco1)C1CCS(=O)(=O)C1 (stereo not given) | inconclusive [activator, single point]
Cc1ccc(NC(=O)c2cc(-c3cccc(O)c3)on2)cc1C | inconclusive [activator, partial curve, poor fit]
COc1ccc2c(c1)CC/C2=N\OC(=O)c1cccc(C)c1 | inconclusive [activator, full curve]
CCCOc1ccc(C(C)=O)cc1CC(C(=O)OCC)C(=O)OCC | inactive
O=C(CSC1=NCCS1)Nc1cccc(F)c1 | inconclusive [activator, single point]
COc1cccc(N2C(=O)Nc3ccc(Br)cc3C2(O)C(=O)NCCCN(C)C)c1 (stereo not given) | inactive
CCOC(=O)c1c(NC(=O)CSc2ncn[nH]2)sc(C(=O)NC)c1C | inconclusive [activator, single point]
Cn1nc(C(F)(F)F)c(-c2ccc(Br)cc2)c1NC(=O)c1ccco1 | inactive
NNC(=O)c1ccc(COc2ccc3c(c2)CCC3)cc1 | inconclusive [activator, partial curve, poor fit]
CC(=O)Nc1ccc(N/C=C/C(=O)c2ccco2)cc1 | inconclusive [activator, full curve, poor fit]
Cc1sc2nc(C(C)C)nc(SCC(=O)NC3CC3)c2c1C | inactive
Nc1nc(NCCO)nc(N2CCCCCC2)c1[N+](=O)[O-] | inactive
COCCCC1CCN(C(=O)c2cc(COc3cc(C)ccc3C)on2)CC1 | inconclusive [activator, partial curve, poor fit]
Cc1ccc(F)cc1CNC(=O)C1CCC(=O)N(C2CC2)C1 (stereo not given) | inconclusive [activator, single point]
COc1ccc(C2=CC(c3sccc3C)n3nnnc3N2)cc1 (stereo not given) | inconclusive [activator, partial curve, poor fit]
Cc1ccc(C(=O)NC(=C(Cl)Cl)S(=O)(=O)c2ccccc2)cc1 | inconclusive [activator, partial curve, poor fit]

Reference: PubChem BioAssay AID504706 (National Center for Advancing Translational Sciences (NCATS), 2011)
